According to paper PMC4336329 (PLoS ONE, 2015):
The campaign covered roughly 310,000 compounds. About 2,200 (0.71%) showed an effect of 50% or more. The effect is printed as a negative number. This is one part of the list.

The compounds below were run against human ether-à-go-go-related gene (hERG) potassium channel (human, UniProt Q12809) (assay: primary screen, population patch clamp on CHO cells stably expressing hERG).
human ether-à-go-go-related gene (hERG) potassium channel, sequence (Q12809 whole entry, looked up): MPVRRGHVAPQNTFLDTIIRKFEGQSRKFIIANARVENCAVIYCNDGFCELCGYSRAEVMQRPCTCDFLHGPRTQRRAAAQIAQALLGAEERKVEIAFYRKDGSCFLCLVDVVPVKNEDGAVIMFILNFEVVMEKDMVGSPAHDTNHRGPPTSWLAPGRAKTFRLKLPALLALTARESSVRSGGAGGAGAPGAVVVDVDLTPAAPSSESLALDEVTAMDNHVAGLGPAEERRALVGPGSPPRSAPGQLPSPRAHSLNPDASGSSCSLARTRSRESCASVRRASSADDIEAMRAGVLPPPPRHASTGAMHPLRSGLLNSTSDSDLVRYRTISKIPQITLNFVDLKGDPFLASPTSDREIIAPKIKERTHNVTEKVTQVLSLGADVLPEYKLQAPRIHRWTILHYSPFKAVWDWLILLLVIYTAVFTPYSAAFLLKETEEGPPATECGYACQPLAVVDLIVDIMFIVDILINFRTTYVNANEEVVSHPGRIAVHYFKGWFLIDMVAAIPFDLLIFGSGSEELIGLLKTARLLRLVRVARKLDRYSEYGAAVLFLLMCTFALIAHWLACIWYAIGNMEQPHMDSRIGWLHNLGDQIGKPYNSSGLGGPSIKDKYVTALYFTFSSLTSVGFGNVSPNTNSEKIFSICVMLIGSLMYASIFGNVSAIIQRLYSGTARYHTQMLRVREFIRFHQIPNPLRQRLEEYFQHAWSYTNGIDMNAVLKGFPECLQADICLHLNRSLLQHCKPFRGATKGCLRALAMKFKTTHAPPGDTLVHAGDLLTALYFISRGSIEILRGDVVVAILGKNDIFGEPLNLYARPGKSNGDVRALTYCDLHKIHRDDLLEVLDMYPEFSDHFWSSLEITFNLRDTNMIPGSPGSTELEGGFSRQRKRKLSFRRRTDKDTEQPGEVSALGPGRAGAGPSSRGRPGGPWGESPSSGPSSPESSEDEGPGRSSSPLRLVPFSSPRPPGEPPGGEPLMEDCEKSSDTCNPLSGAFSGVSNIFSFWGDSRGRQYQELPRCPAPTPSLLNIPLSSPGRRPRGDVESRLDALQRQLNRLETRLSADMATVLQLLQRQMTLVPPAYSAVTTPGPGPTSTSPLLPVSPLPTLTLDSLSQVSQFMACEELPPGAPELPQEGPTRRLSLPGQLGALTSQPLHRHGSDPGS

Row | Structure (SMILES) | hERG current change (%, negative = inhibition) at 1uM
1 | Cc1ccc(Sc2ncccc2C(N)=O)cc1 | 10.5%
2 | COc1ccc(CN2CCN(C(=O)c3cc(-c4cccnc4)nc4ccc(Cl)cc34)CC2)c(OC)c1OC.Cl | 9.63%
3 | CN(C(=O)Nc1cccc(C(F)(F)F)c1)C1CCCCC1 | 13.8%
4 | O=C(NCC1CCCO1)C1CCN(C2CCN(C(=O)Cc3ccsc3)CC2)CC1 (centres unmarked) | 7.14%
5 | CCOC(=O)C1CCCN(S(=O)(=O)c2cc(OCC(N)=O)c(C)cc2Cl)C1 (centres unmarked) | 11.7%
6 | COc1ccc2c(=O)cc(C(=O)O)oc2c1 | -3.54%
7 | COc1ccc(NC(=O)[C@@H](NC(N)=O)C(C)C)cc1Cl | 8.42%
8 | O=C(CCc1nc(-c2cccs2)no1)Nc1cnc2ccccc2c1 | 18.7%
9 | COc1ccc(C2=C/C(=C\c3ccccc3OC(C)=O)C(=O)O2)cc1 | 18.4%
10 | Cc1c(C(=O)N2CC(C)OC(C)C2)sc2nc(-c3ccc(F)cc3)cn12 (centres unmarked) | -2.78%
11 | COc1ccc2oc(C(=O)N3CCN(S(=O)(=O)c4cccc([N+](=O)[O-])c4)CC3)c(C)c2c1 | 13.5%
12 | Cc1ccc(C)c(OCCC(=O)NCCc2ccc(F)cc2)c1 | 9.65%
13 | CCOc1ccc(CC(=O)NNC(=S)NC)cc1 | 10.1%
14 | Cc1c(NC(=O)/C(C#N)=C/c2c(Oc3ccccc3)nc3ccccn3c2=O)c(=O)n(-c2ccccc2)n1C | 7.31%
15 | CC(NC(=O)CCNS(=O)(=O)c1ccc2c(c1)oc(=O)n2C)c1ccccc1 (centres unmarked) | 14.1%
16 | O=C(c1cc(COc2ccc(F)c(F)c2)on1)N1CCOCC1 | 13.4%
17 | O=C(Nc1nc(-c2cc3ccccc3o2)cs1)c1ccc(S(=O)(=O)N2CCCC2)cc1 | 23.1%
18 | CCC(C)N(C(=O)Cn1nnc2ccccc21)C(C(=O)Nc1ccc(F)cc1)c1cccc(OC)c1 (centres unmarked) | 3.02%
19 | COc1ccccc1OCC(=O)N/N=C1/C=C(C)CC1 | -0.906%

Row | Structure (SMILES) | hERG current change (%, negative = inhibition) at 1uM
20 | O=C(NCC(=O)N1CCC(N2CCCCC2)CC1)C1CCCCC1 | 10.4%
21 | Cc1c(CC(=O)O)c(=O)oc2cc3occ(-c4ccc(F)cc4)c3cc12 | 18%
22 | COc1ccc(-c2nnc(N3CCOCC3)c3ccccc23)cc1 | 11.8%
23 | O=C(Nc1ccc2ccccc2n1)c1ccccc1Br | 19.4%
24 | CCc1cc2cc(OC)ccc2nc1SCC(=O)Nc1cc(OC)c(OC)cc1C(=O)O | 4.02%
25 | CSCC[C@H](NC(=O)OC(C)(C)C)c1nnc(SCc2ccc(F)cc2)o1 | -0.565%
26 | CCOc1ncccc1C(=O)Nc1ccc(S(=O)(=O)Nc2nccs2)cc1 | 10.5%
27 | Cc1ccc(S(=O)(=O)N2CCN(C(=O)CCN3C(=O)c4ccccc4C3=O)CC2)cc1C | -2.35%
28 | COc1ccc([C@H]2CC(=O)C=C(c3ccccc3)C2)cc1 | 12.6%
29 | Cc1cc(C(F)(F)F)c2c(C)nn(-c3ccccc3)c2n1 | 11.5%
30 | CCCc1cc(=O)oc2cc(C)cc(OC(C)C(=O)NCc3ccccn3)c12 (centres unmarked) | 2.71%
31 | COC(=O)c1cccc(N(C(=O)c2ccco2)C(C(=O)NC2CCCC2)c2ccco2)c1 (centres unmarked) | -5.49%
32 | Cc1ccc(C(C)(O)CS(=O)(=O)Cc2ccccc2)cc1 (centres unmarked) | 12.3%
33 | Cc1ccc(CSCC(=O)Nc2cc(S(=O)(=O)N3CCOCC3)ccc2OC(C)C)cc1 | -4.76%
34 | COCc1cc(C)[nH]c(=O)c1C(=O)NC12CC3CC(CC(C3)C1)C2 | 15.4%
35 | COc1cc(NC(=O)c2cccnc2SC)cc(OC)c1OC | 14.5%
36 | O=C(Nc1ccccc1N1CCCC1)c1ccc(Br)o1 | 6.24%
37 | CCCCNC(=O)CC1Nc2ccccc2NC1=O (centres unmarked) | 2.1%
38 | CC/C(C)=N/Nc1nc(-c2cc3cccc(OC)c3oc2=O)cs1 | 5.28%

Row | Structure (SMILES) | hERG current change (%, negative = inhibition) at 1uM
39 | CC(C)CCC(C(=O)O)C(C)CC(=O)Nc1ccn(-c2ccccc2)n1 (centres unmarked) | 12%
40 | Cc1cc(Oc2ccccc2)nc(NCc2ccccc2)n1 | 6.46%
41 | CCCCOc1cccc(C(=O)N(Cc2ccccc2)C2CCS(=O)(=O)C2)c1 (centres unmarked) | 13%
42 | COc1ccc(NC(=O)c2cccc(OC(=S)N3CCOCC3)c2)cc1 | 4.26%
43 | O=C(CCCCC(=O)NCCCc1ccccc1)NCCCc1ccccc1 | 14%
44 | COc1ccccc1-c1ocnc1C(=O)N1CCN(C(=O)C(c2ccccc2)c2ccccc2)CC1 | -15.8%
45 | C/C(=N/NC(=O)c1cc(C)[nH]n1)c1ccco1 | 12.4%
46 | O=C(CNC(=O)C1CCCCC1)OCc1cc(=O)oc2ccc3ccccc3c12 | 5.88%
47 | CCc1c(O)nc(SCC(=O)Nc2ccc(OC)cc2)n(C2CCCCC2)c1=O | 7.24%
48 | COc1cccc(OCc2cc(C(=O)N(C)C3CCOCC3)no2)c1 | 1.6%
49 | Cc1ccc(OCCn2cc(C=O)c3ccccc32)cc1 | 17.4%
50 | COc1ccc(S(=O)(=O)Nc2ccc3c(c2)n(C)c(=O)n3C)cc1C | 6.57%
51 | Cc1sc2nc(SCC(=O)NCCO)n(-c3ccccc3)c(=O)c2c1C | 3.19%
52 | NC(=O)CC(NC(=O)Cc1cccc2ccccc12)c1ccc(NCCOc2ccccc2)c([N+](=O)[O-])c1 (centres unmarked) | 7.29%
53 | O=C(CN(Cc1cccs1)C(=O)CNS(=O)(=O)c1ccc(F)cc1)NCC1CCCO1 (centres unmarked) | 11.9%
54 | Cc1cc2n(n1)C(c1ccco1)Nc1ccccc1-2 (centres unmarked) | -1.3%
55 | O=C(CNC(=O)c1ccc(Cl)cc1)NCCCn1ccnc1 | 16.9%
56 | CCCNC(=O)CN(CCc1ccccc1)S(C)(=O)=O | 8.53%
